Test [1] has as its target T1, recombinant VWF-A2 (von Willebrand factor A2 domain, amino acids M1473-G1672), wild type (UniProt P04275 1473-1672, biotinylated in the BLI assay (site not stated); not said to be biotinylated in the AFM assay).
T1 construct: von Willebrand factor, A2 domain, residues M1473-G1672; cloned from a full-length VWF plasmid (MiaoLingBio); Secreted into the medium of HEK293F cells; The discussion calls the host HEK293 cells; source: HEK293F cells, culture medium collected, purified (Ni2+-Hi-Trap chelating column); not shown: His tag, N-terminal, kept
As to the kind of experiment: atomic force microscopy (adhesion frequency and rupture force); VWF-A2 (15 ug/mL) held on the cantilever tip and VWF-A1 or its variants (15 ug/mL) on polystyrene dishes, each through adsorbed mouse anti-His mAb; blocked with 2% BSA; approach-retraction speed 200 nm/s in 2% BSA; 100 contact cycles a point. The following applies: both partners purified.

The target of test [2] is T2, VWF-A2 mutant A2_mut (V1546A/R1575A/E1598A) (UniProt P04275 1473-1672, V1546A | R1575A | E1598A).
T2 construct: von Willebrand factor, A2 domain, residues M1473-G1672, with V1546A, R1575A and E1598A; source: HEK293F cells, culture medium collected, purified (Ni2+-Hi-Trap chelating column); not shown: His tag, N-terminal, kept
Described as above. The following applies: both partners purified.

B1: recombinant VWF-A1 (von Willebrand factor A1 domain, […]), wild type (domain or fragment)
chain: not shown
notes: von Willebrand factor, A1 domain, […]; cloned from a full-length VWF plasmid (MiaoLingBio); Secreted into the medium of HEK293F cells; The tag is 6xHis to judge from the anti-6xHis antibody used for capture; also called WT A1; WT VWF-A1; source: HEK293F cells, culture medium collected, purified (Ni2+-Hi-Trap chelating column); not shown: His tag, N-terminal, kept
Take B1: in test [1], the average rupture force amounted to 42.2 pN and the “central peak value (XC) of the rupture force distribution” value was 34.4 pN. In addition, in test [2], the adhesion frequency is 6.4%, the average rupture force came to 33 pN and the “central peak value (XC) of the rupture force distribution” value turned out to be 24.5 pN.

Values taken from article PMC12743552, “Key residues regulating von Willebrand factor A1/A2 interactions: insights from molecular dynamics simulations and experimental validation” (Research and Practice in Thrombosis and Haemostasis, 2025).
